The supplement of paper PMC3334620
The full ranking holds about 33,000 sequences; the median of “E-score (-0.5 to 0.5)” is about -0.041, and the highest 2% start at about 0.37. This is one part of the list.

target: T1, Ecm22 (UniProt Q05958); experiment: PBM E-score (8-mer binding enrichment) (E-score (-0.5 to 0.5)); higher = stronger / more preferred TF binding; most listed sequences are background and not binding sites; conditions: protein concentration: 200 nM; construct: GST-full length
T1 sequence: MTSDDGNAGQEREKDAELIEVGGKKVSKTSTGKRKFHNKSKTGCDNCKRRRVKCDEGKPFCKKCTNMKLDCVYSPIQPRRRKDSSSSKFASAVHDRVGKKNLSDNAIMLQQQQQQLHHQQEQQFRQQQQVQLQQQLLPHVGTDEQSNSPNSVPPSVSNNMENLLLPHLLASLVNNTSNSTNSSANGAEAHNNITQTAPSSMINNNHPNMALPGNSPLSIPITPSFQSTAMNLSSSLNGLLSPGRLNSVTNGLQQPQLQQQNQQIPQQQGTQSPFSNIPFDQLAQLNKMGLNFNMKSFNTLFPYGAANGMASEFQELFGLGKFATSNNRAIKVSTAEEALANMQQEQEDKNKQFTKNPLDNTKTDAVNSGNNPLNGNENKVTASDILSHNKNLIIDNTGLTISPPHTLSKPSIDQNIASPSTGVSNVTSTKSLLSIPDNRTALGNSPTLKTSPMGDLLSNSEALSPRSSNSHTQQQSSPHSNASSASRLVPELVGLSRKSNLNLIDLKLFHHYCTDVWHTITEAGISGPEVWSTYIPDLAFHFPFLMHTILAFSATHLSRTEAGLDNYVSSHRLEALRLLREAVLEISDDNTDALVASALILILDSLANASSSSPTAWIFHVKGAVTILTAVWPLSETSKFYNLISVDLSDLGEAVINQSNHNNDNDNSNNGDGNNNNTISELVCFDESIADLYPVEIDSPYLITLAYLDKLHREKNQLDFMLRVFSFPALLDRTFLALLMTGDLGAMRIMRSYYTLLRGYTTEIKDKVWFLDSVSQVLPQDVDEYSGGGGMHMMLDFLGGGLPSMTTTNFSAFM
How it was run: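 GST-tagged yeast TFs (full-length or DNA-binding domain) were made by PURExpress in vitro transcription/translation and applied at about 100-200 nM to universal all-10-mer Agilent arrays. The arrays were made double-stranded by primer extension, on fresh or once-stripped slides. Bound protein was detected with fluorescent anti-GST, and scans were normalised with masliner. Each ungapped eight-base word, pooled with its reverse complement, received an E-score (modified Wilcoxon-Mann-Whitney statistic) from the Universal PBM Analysis Suite.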

Sequence	PBM E-score
GCCCCCTA	-0.423
AGATCGAG	-0.0338
CACGCTAA	-0.0563
CGCCCGCA	0.0243
AGCATGCC	-0.286
GGAAGTCA	-0.14
AGTGCCTG	-0.0894
AAACGAGA	0.463
GGGGTCAA	0.0871
AATGCTTA	-0.221
GCCCGGTA	-0.0773
GGTTTCAA	-0.0823
GTCGATCA	-0.0187
ACTTTCTC	-0.157
ATTTTCCG	0.178
CGTAAATA	0.377
AATCTTGA	-0.329
ATTCGTTA	0.309
CGGACTGC	-0.0684
AATGCATG	0.0368
ATTGAGCG	0.164
CGCGTGGA	0.0564
GTTAGGGA	0.0493
CGTGGCAG	-0.0719
ATGACGAC	-0.101

Sequence	PBM E-score
GTCAACCA	-0.0873
ACTAAACA	-0.273
CGTTTATC	0.42
ATCATCCC	-0.131
AACCAACA	0.0859
CGTCATTA	-0.109
ATAGTGGG	-0.221
ACCACGCG	0.0976
AGTGGTGC	0.0925
ACCCCCTG	-0.194
AGGTGAGC	-0.0437
GCCTGACC	-0.0841
ACGTCTAG	-0.0254
CCTGGCTC	0.0716
GCCTAGGC	-0.354
AGTGACCG	-0.0274
ACTCACGG	0.034
CAGTAAGA	0.107
ACCGTGGA	-0.081
CCGACGAA	0.105
AGCCTGCC	0.0185
AACGAACA	0.409
GGCGCCGA	-0.0855
CAACGTCA	-0.111
TCCAAAAA	-0.191

Sequence	PBM E-score
GAGACCGA	0.0824
GTAATGGA	-0.00921
GACCATGC	0.00018
AAGACTTC	-0.136
CCGATACG	0.326
ACTCCTGG	-0.334
CCGTCAGG	-0.0998
GAATTGGA	-0.0715
CGTTGCCC	0.22
CCCCTAAG	-0.236
CACGTAGC	-0.026
CATGAACC	-0.06
TTAATAAA	0.169
TGACTCCA	-0.349
CTAGGAGA	-0.261
CACGTTCG	-0.138
AACCGCGT	0.175
ATACAAAC	0.166
GTACTTAA	0.031
ATAGGCCG	-0.0374
CACAGGTC	-0.214
ATCGACCG	0.0199
CGAGTTGC	0.138
GCCTCACA	-0.0448
CGAGAAGA	0.141

Sequence	PBM E-score
CGAAATCA	0.262
ATCGCGAA	0.284
AAGGCGAT	0.0228
CTGGGCGA	-0.0927
ACAAACGA	0.445
CCAGCCGG	-0.172
TCAGTGGA	-0.35
TGCACGAA	0.109
AGTGATAG	-0.126
TCAAAAAA	-0.219
AAGTAACT	-0.113
ACTGTTAT	-0.149
ATCTGCAT	-0.0143
CTCGGCTC	0.042
CAGAAGTA	-0.283
CATGGGGC	-0.289
GCAGCCAA	-0.295
ATGAGTGA	-0.14
TCAACCCA	-0.077
AGGTAAGC	-0.0248
ATGTGAAG	-0.041
CATCATTC	0.0369
TGTAGTAA	0.0843
AATTGAAA	-0.155
GATAATCA	-0.053

Sequence	PBM E-score
CACTGAGG	-0.0758
GCTCTAAC	-0.103
CCAGAATC	-0.00685
ATTCTGAC	-0.00599
CGTGTCGC	0.265
ACAATTAA	0.0696
CACCAACC	-0.107
ACAGTCAG	-0.033
CACACTGG	-0.202
CAATCAGA	-0.023
AGAAGCGA	0.223
AAGATGAG	-0.199
GAGCTAGC	-0.0525
GATAGTGA	0.137
CCAAGGGG	-0.115
CTCGCTAC	0.31
AAACCATA	0.0858
GAGCCATA	-0.0602
CCACGCGA	0.18
AAGAGCAC	-0.116
AATAACGT	0.155
CGTTAACA	0.233
CGGGAGTC	-0.148
ATAACAGG	-0.133
AACACTTA	-0.0131

Sequence	PBM E-score
CATGGATA	-0.0629
GCGAAAAC	0.107
GCGGCGAA	0.0736
ATTGTAGA	0.0824
TAGTAGAA	0.137
GGGCTTAA	-0.115
AGTTATTC	0.0906
GGGGTACC	-0.193
CTGGGGAC	-0.338
ACTTGGTA	0.065
ATACAGTG	0.0609
CCATACGC	0.218
AGTGGTTA	0.0717
AGGGTAGG	-0.351
GTCGTGCA	0.0222
AAAGACTG	-0.0334
AAGCCTTA	-0.0685
ACGGAGCA	-0.0244
ACTTTACT	-0.241
CCTCCACC	-0.178
CAACTGGC	-0.152
GCTGACCC	-0.254
GAGATCGA	-0.0238
ACGATCAA	0.263
TGCGCGAA	0.233

Sequence	PBM E-score
TCCATCGA	-0.0751
AAATCGCG	0.0694
GGTAGAGA	-0.0671
CAATACCA	0.00083
TCTACTAA	0.00879
AACCTCAA	-0.205
CATATGCG	0.243
GGCTCTTA	0.0372
CGTATTTC	0.33
GTCCGGTA	0.0584
ATTTACCG	0.182
TCGGAAGA	0.085
ATGGGGTA	-0.0408
GATTCGAC	-0.00995
ATGGATCC	-0.0619
GGGTTGTA	-0.0732
GTACCAAA	0.138
CGAGGACG	0.229
CACTTTTA	-0.0979
CGCCTCAA	-0.1
AATGCGTG	-0.176
AATCCGGA	-0.0546
CGTGTGTA	0.00761
GTTAGACA	-0.137
GTCGAGTA	0.107

Sequence	PBM E-score
AACGCGAA	0.238
ACGCCGCC	-0.148
AGTGAGTA	0.0432
CGGTGACG	0.0711
GCGCGCAC	0.0127
CTCATCTC	-0.0715
ATAACTAT	0.051
GGCATGAC	-0.121
TACTAATA	0.0669
AAGGTCTA	0.0174
ATTGAAGC	-0.128
CCAACACA	0.0271
TATTTGAA	-0.204
AATCGCAT	0.154
CTTAGACA	-0.123
ACTCATAC	0.291
CCAGCGGC	-0.175
CTAGTAGC	0.0625
GCCCAGAA	-0.157
CCTTAGCG	0.0184
GCCTTGAC	-0.24
AAAAAGGT	-0.00405
AAGTAACA	-0.125
CCTGCTCA	-0.181
CCGCTGAA	-0.00985

Sequence	PBM E-score
ACTACGAG	0.335
AGCAATTA	-0.107
GGTGAACA	-0.272
AACTGAGG	0.0162
AATGACTG	-0.223
ACGCAATC	-0.0574
ACGTTCCA	0.214
AACTAGGT	0.0116
CCTGGACG	-0.201
AAATCTCT	-0.0179
GTAACTAC	0.0869
CGGAGGCA	-0.0509
CGACAGAC	0.0723
ATTCCGAC	-0.0388
AGGTACAA	-0.191
CGAAGCCA	0.087
AACCACAA	-0.0332
GCGCCTTA	-0.0457
GACCCCGC	0.00664
